According to patent US20250170255A1:

Molecular target: biotinylated human TROP2 antigen (human) (UniProt P09758)
Assay: ELISA pH 7.5 against pH 5.5

Chain of UniProt P09758 (P09758 27-274): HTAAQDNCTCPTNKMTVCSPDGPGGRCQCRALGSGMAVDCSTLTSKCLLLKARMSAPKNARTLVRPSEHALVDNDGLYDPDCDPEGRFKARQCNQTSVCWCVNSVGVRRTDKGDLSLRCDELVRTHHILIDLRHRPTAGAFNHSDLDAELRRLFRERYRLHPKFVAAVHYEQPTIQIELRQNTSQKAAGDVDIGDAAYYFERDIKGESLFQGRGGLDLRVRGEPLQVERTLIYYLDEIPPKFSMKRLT

B1: anti-TROP2 masked antibody MHT1008 (antibody)
heavy: GYLALKHPWPGLAENSGSGGGGSGGGGSGGGGSGGSQVQLVQSGAEVKKPGASVKVSCKASGYTFTTAGMQWVRQAPGQGLEWMGWINTHSGVPKYAEDFKGRVTISADTSTSTAYLQLSSLKSEDTAVYYCARSGFGSSYWYFDVWGQGTLVTVSSASTKGPSVFPLAPSSKSTSGGTAALGCLVKDYFPEPVTVSWNSGALTSGVHTFPAVLQSSGLYSLSSVVTVPSSSLGTQTYICNVNHKPSNTKVDKRV[human IgG1 Fc not spelt out]
light: DIQMTQSPSSLSASVGDRVTITCKASQDVSTAVAWYQQKPGKAPKLLIYSASYRYTGVPSRFSGSGSGTDFTLTISSLQPEDFAVYYCQQHYITPLTFGQGTKLEIKRTVAAPSVFIFPPSDEQLKSGTASVVCLLNNFYPREAKVQWKVDNALQSGNSQESVTEQDSKDSTYSLSSTLTLSKADYEKHKVYACEVTHQGLSSPVTKSFNRGEC
  EC50 ratio (neutral pH conditions/acidic pH conditions): 1.2
